# According to the supplement of paper PMC8728848:
# Some of the results follow.
# B1: DC-SIGN (Canis lupus), XP_853402 (protein)
# chain: AGLCRPCPWKWELFQESCYFFSQTQNTWKESISACQNLRAQLVIINSTEEQKFLKSWNTRNNQRTWIGLSDHHNEGSWKWVDNTPLQLSFWKEGEPNNHGDEDCVELYSDGWNDNRCSTENFWICKKPSSPCPGPGLNDIFEAQKIEWHE
# Key:
# Assay in all cases: glycan array binding signal (z-score within array); higher = stronger binding
# Settings in all cases: glycan notation: IUPAC condensed, linker removed
# Fuc(a1-2)Gal = target: Fuc(a1-2)Gal
# Procedure, shortened: (§1)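 The Consortium for Functional Glycomics database supplied 3228 glycan arrays, of which those lacking an available protein sequence were dropped. The binding signal, a within-array Z-score, was averaged across arrays of the same protein sequence and across linkers. Negative scores can be read as non-binding.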
# Fuc(a1-2)Gal(b1-3)GalNAc = target: Fuc(a1-2)Gal(b1-3)GalNAc
# Procedure, shortened: as §1
# [1] = target: Fuc(a1-2)Gal(b1-3)GalNAc(b1-3)Gal
# Procedure, shortened: as §1
# [2] = target: Fuc(a1-2)Gal(b1-3)GalNAc(b1-3)Gal(a1-4)Gal(b1-4)Glc
# Procedure, shortened: as §1
# [3] = target: Fuc(a1-2)Gal(b1-3)GalNAc(b1-4)[Neu5Ac(a2-3)]Gal(b1-4)Glc
# Procedure, shortened: as §1
# Fuc(a1-2)Gal(b1-3)GlcNAc = target: Fuc(a1-2)Gal(b1-3)GlcNAc
# Procedure, shortened: as §1
# [4] = target: Fuc(a1-2)Gal(b1-3)GlcNAc(b1-2)Man(a1-3)[Fuc(a1-2)Gal(b1-3)GlcNAc(b1-2)Man(a1-6)]Man(b1-4)GlcNAc(b1-4)GlcNAc
# Procedure, shortened: as §1
# [5] = target: Fuc(a1-2)Gal(b1-3)GlcNAc(b1-3)Gal(b1-4)Glc
# Procedure, shortened: as §1
# [6] = target: Fuc(a1-2)Gal(b1-3)GlcNAc(b1-3)[Gal(b1-4)[Fuc(a1-3)]GlcNAc(b1-6)]Gal(b1-4)Glc
# Procedure, shortened: as §1
# [7] = target: Fuc(a1-2)Gal(b1-3)[Fuc(a1-4)]GlcNAc
# Procedure, shortened: as §1
# [8] = target: Fuc(a1-2)Gal(b1-3)[Fuc(a1-4)]GlcNAc(b1-2)Man(a1-3)[Fuc(a1-2)Gal(b1-3)[Fuc(a1-4)]GlcNAc(b1-2)Man(a1-6)]Man(b1-4)GlcNAc(b1-4)GlcNAc
# Procedure, shortened: as §1
# Fuc(a1-2)Gal(b1-4)Glc = target: Fuc(a1-2)Gal(b1-4)Glc
# Procedure, shortened: as §1
# Fuc(a1-2)Gal(b1-4)Glc6S = target: Fuc(a1-2)Gal(b1-4)Glc6S
# Procedure, shortened: as §1
# Fuc(a1-2)Gal(b1-4)GlcNAc = target: Fuc(a1-2)Gal(b1-4)GlcNAc
# Procedure, shortened: as §1
# [9] = target: Fuc(a1-2)Gal(b1-4)GlcNAc(b1-2)Man(a1-3)[Fuc(a1-2)Gal(b1-4)GlcNAc(b1-2)Man(a1-6)]Man(b1-4)GlcNAc(b1-4)GlcNAc
# Procedure, shortened: as §1
# [10] = target: Fuc(a1-2)Gal(b1-4)GlcNAc(b1-3)Gal(b1-4)GlcNAc
# Procedure, shortened: as §1
# [11] = target: Fuc(a1-2)Gal(b1-4)GlcNAc(b1-3)Gal(b1-4)GlcNAc(b1-3)Gal(b1-4)GlcNAc
# Procedure, shortened: as §1
# [12] = target: Fuc(a1-2)Gal(b1-4)GlcNAc6S
# Procedure, shortened: as §1
# [13] = target: Fuc(a1-2)Gal(b1-4)[Fuc(a1-3)]GlcNAc
# Procedure, shortened: as §1
# [14] = target: Fuc(a1-2)Gal(b1-4)[Fuc(a1-3)]GlcNAc(b1-2)Man(a1-3)[Fuc(a1-2)Gal(b1-4)[Fuc(a1-3)]GlcNAc(b1-2)Man(a1-6)]Man(b1-4)GlcNAc(b1-4)GlcNAc
# Procedure, shortened: as §1
# [15] = target: Fuc(a1-2)Gal(b1-4)[Fuc(a1-3)]GlcNAc(b1-3)Gal(b1-4)[Fuc(a1-3)]GlcNAc
# Procedure, shortened: as §1
# [16] = target: Fuc(a1-2)Gal(b1-4)[Fuc(a1-3)]GlcNAc(b1-3)Gal(b1-4)[Fuc(a1-3)]GlcNAc(b1-3)Gal(b1-4)[Fuc(a1-3)]GlcNAc
# Procedure, shortened: as §1
# Fuc(a1-2)Gal6S(b1-4)Glc = target: Fuc(a1-2)Gal6S(b1-4)Glc
# Procedure, shortened: as §1
# [17] = target: Fuc(a1-2)Gal6S(b1-4)Glc6S
# Procedure, shortened: as §1
# [18] = target: Fuc(a1-2)Gal6S(b1-4)GlcNAc
# Procedure, shortened: as §1
# Fuc(a1-2)[Gal(a1-3)]Gal = target: Fuc(a1-2)[Gal(a1-3)]Gal
# Procedure, shortened: as §1
# [19] = target: Fuc(a1-2)[Gal(a1-3)]Gal(b1-3)GlcNAc
# Procedure, shortened: as §1
# [20] = target: Fuc(a1-2)[Gal(a1-3)]Gal(b1-3)GlcNAc(b1-2)Man(a1-3)[Fuc(a1-2)[Gal(a1-3)]Gal(b1-3)GlcNAc(b1-2)Man(a1-6)]Man(b1-4)GlcNAc(b1-4)GlcNAc
# Procedure, shortened: as §1
# [21] = target: Fuc(a1-2)[Gal(a1-3)]Gal(b1-4)Glc
# Procedure, shortened: as §1
# [22] = target: Fuc(a1-2)[Gal(a1-3)]Gal(b1-4)GlcNAc
# Procedure, shortened: as §1
# [23] = target: Fuc(a1-2)[Gal(a1-3)]Gal(b1-4)GlcNAc(b1-2)Man(a1-3)[Fuc(a1-2)[Gal(a1-3)]Gal(b1-4)GlcNAc(b1-2)Man(a1-6)]Man(b1-4)GlcNAc(b1-4)GlcNAc
# Procedure, shortened: as §1
# [24] = target: Fuc(a1-2)[Gal(a1-3)]Gal(b1-4)[Fuc(a1-3)]GlcNAc
# Procedure, shortened: as §1
# [25] = target: Fuc(a1-2)[Gal(a1-4)]Gal(b1-4)GlcNAc
# Procedure, shortened: as §1
# [26] = target: Fuc(a1-2)[GalNAc(a1-3)]Gal
# Procedure, shortened: as §1
# [27] = target: Fuc(a1-2)[GalNAc(a1-3)]Gal(b1-3)GlcNAc
# Procedure, shortened: as §1
# [28] = target: Fuc(a1-2)[GalNAc(a1-3)]Gal(b1-3)GlcNAc(b1-2)Man(a1-3)[Fuc(a1-2)[GalNAc(a1-3)]Gal(b1-3)GlcNAc(b1-2)Man(a1-6)]Man(b1-4)GlcNAc(b1-4)GlcNAc
# Procedure, shortened: as §1
# [29] = target: Fuc(a1-2)[GalNAc(a1-3)]Gal(b1-4)Glc
# Procedure, shortened: as §1
# [30] = target: Fuc(a1-2)[GalNAc(a1-3)]Gal(b1-4)GlcNAc
# Procedure, shortened: as §1
# [31] = target: Fuc(a1-2)[GalNAc(a1-3)]Gal(b1-4)GlcNAc(b1-2)Man(a1-3)[GalNAc(a1-3)[Fuc(a1-2)]Gal(b1-4)GlcNAc(b1-2)Man(a1-6)]Man(b1-4)GlcNAc(b1-4)GlcNAc
# Procedure, shortened: as §1
# [32] = target: Fuc(a1-2)[GalNAc(a1-3)]Gal(b1-4)GlcNAc(b1-3)Gal(b1-4)GlcNAc
# Procedure, shortened: as §1
# [33] = target: Fuc(a1-2)[GalNAc(a1-3)]Gal(b1-4)GlcNAc(b1-3)Gal(b1-4)GlcNAc(b1-3)Gal(b1-4)GlcNAc
# Procedure, shortened: as §1
# [34] = target: Fuc(a1-2)[GalNAc(a1-3)]Gal(b1-4)[Fuc(a1-3)]GlcNAc
# Procedure, shortened: as §1
# [35] = target: Fuc(a1-2)[GalNAc(a1-4)]Gal(b1-4)GlcNAc
# Procedure, shortened: as §1
# [36] = target: Fuc(a1-2)[GalNAc(b1-3)]Gal
# Procedure, shortened: as §1
# Fuc(a1-3)GlcNAc = target: Fuc(a1-3)GlcNAc
# Procedure, shortened: as §1
binder,measurement,setting,value
B1,glycan array binding signal (z-score),Fuc(a1-2)Gal,0.091
same,glycan array binding signal (z-score),Fuc(a1-2)Gal(b1-3)GalNAc,-0.087
same,glycan array binding signal (z-score),[1],-0.172
same,glycan array binding signal (z-score),[2],-0.352
same,glycan array binding signal (z-score),[3],-0.197
same,glycan array binding signal (z-score),Fuc(a1-2)Gal(b1-3)GlcNAc,-0.129
same,glycan array binding signal (z-score),[4],0.008
same,glycan array binding signal (z-score),[5],-0.259
same,glycan array binding signal (z-score),[6],-0.172
same,glycan array binding signal (z-score),[7],-0.059
same,glycan array binding signal (z-score),[8],0.148
same,glycan array binding signal (z-score),Fuc(a1-2)Gal(b1-4)Glc,-0.239
same,glycan array binding signal (z-score),Fuc(a1-2)Gal(b1-4)Glc6S,0.108
same,glycan array binding signal (z-score),Fuc(a1-2)Gal(b1-4)GlcNAc,-0.089
same,glycan array binding signal (z-score),[9],0.078
same,glycan array binding signal (z-score),[10],-0.196
same,glycan array binding signal (z-score),[11],0.003
same,glycan array binding signal (z-score),[12],-0.065
same,glycan array binding signal (z-score),[13],-0.091
same,glycan array binding signal (z-score),[14],-0.021
same,glycan array binding signal (z-score),[15],-0.206
same,glycan array binding signal (z-score),[16],0.056
same,glycan array binding signal (z-score),Fuc(a1-2)Gal6S(b1-4)Glc,-0.167
same,glycan array binding signal (z-score),[17],0.124
same,glycan array binding signal (z-score),[18],0.086
same,glycan array binding signal (z-score),Fuc(a1-2)[Gal(a1-3)]Gal,-0.256
same,glycan array binding signal (z-score),[19],-0.202
same,glycan array binding signal (z-score),[20],-0.24
same,glycan array binding signal (z-score),[21],0.002
same,glycan array binding signal (z-score),[22],-0.311
same,glycan array binding signal (z-score),[23],-0.305
same,glycan array binding signal (z-score),[24],0.634
same,glycan array binding signal (z-score),[25],-0.31
same,glycan array binding signal (z-score),[26],-0.164
same,glycan array binding signal (z-score),[27],-0.166
same,glycan array binding signal (z-score),[28],-0.276
same,glycan array binding signal (z-score),[29],-0.349
same,glycan array binding signal (z-score),[30],-0.137
same,glycan array binding signal (z-score),[31],-0.235
same,glycan array binding signal (z-score),[32],-0.245
same,glycan array binding signal (z-score),[33],0.504
same,glycan array binding signal (z-score),[34],0.358
same,glycan array binding signal (z-score),[35],-0.23
same,glycan array binding signal (z-score),[36],0.21
same,glycan array binding signal (z-score),Fuc(a1-3)GlcNAc,0.009
